Assay results reported in the RNAGym collection of RNA variant scans (doi:10.1073/pnas.2313332121).
Variants at the background level are over-represented here.

B1: TPR 5TU (parent)
chain: GGAUCUUCUCGAUCUAACAAAAAAGACAAAUCUGCCACAAAGCUUGAGAGCAUCUUCGGAUGCAGAGGCGGCAGCCUUCGGUGGCGCGAUAGCGCCAACGUUCUCAACUAUGACACGCAAAACGCGUGCUCCGUUGAAUGGAGUUUAUCAUG

Variants of: B1
Assay: polymerase ribozyme fitness, log enrichment relative to wild type (log ratio); higher = more active; in vitro selection for triplet polymerase activity
In short: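 PCR was used to build mutant libraries for each subunit of a heterodimeric triplet polymerase ribozyme, which were then transcribed. A single in vitro selection round, in triplicate, used a frozen incubation at −7 °C and recovered extended constructs by gel excision, streptavidin beads and RT-PCR. Fitness is the logarithm of genotype enrichment relative to wild-type enrichment, averaged over replicates with inverse-variance weights. The logarithm is base 2, and after Illumina sequencing only genotypes with ≥10 input reads and ≥1 read per output were kept.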

Polymerase ribozyme fitness (log ratio), ≤ -4.2:
GGAUCUGCUCGAUCUAACAAAAAAGACAAAUCUGCCACAAAGCUGGAGCGCAUCUUCGGAUGCAGAGGCGGCAGCCUUCGGUAGCGCGAUAGCGACAACGUUCUCAACUAUGACACGCAAAACGCGUGCUCCGUUGAAUGGAGUUUAUCAUG [U7G U45G A49C G83A C95A]
GGAUCUGCUCGAUCUAACAAAAAAGACAAAUCUGCCACAAAGCUUGAGAGCAAGGUCGGAUGCAGAGGCGGCAGCCUUCGGUGGCGCGAUAGCGCCAACGUUCUCAACUAUGACACGCAACACGCGUGCUCCGUGGAAUGGAGUUUAUUAUG [U7G U53A C54G U55G A121C U135G C149U]
GGAUCUGCUCGAUCUAACAAAAAAGACAAAUCUGCCACAAAGCUUGAGAGCAUCUACGGAUGCAGAGGCGGCAGCCUUCGGUGGUGCGAUUGCGUCAACGUUCGCAACUAUGACACGCAAAACGCGUGCUCCGCUGAAUGGAGUUUAUCAUG [U7G U56A C85U A91U C95U U104G U134C]
GGAUCUUAUCGUUCUAACUAAAAAGACAAAUCUGCCACAAAGCUUGAGAGCAUCAUCGGAUGCAGAGGCGGCAGCCUUCGGUAGCGCGAUAGCGCCAACGUUCUCAACUAUGACACGCAAAACGCGUGCUCCGUUGAAUGGAGUUUAUCGUG [C8A A12U A19U U55A G83A A150G]
GGAUCUUAUCGAUCUAGCAAUAAAGACAAAUCUGCCAUAAAGCUUGAGAGCAUCUUCGGAUGCAGAGGCGGCAGCCUUCGGUGGCACGAUAGCGCCAAGGUUCUCAACUAUGACACGCAAAACGCGUGCUCCGUUGAAUGGAGUUUAUCAUG [C8A A17G A21U C38U G86A C99G]
GGAUCUUAUCGAUCUAGCAAAAAAGAGAAAUCUGCCACAAAGCUUGAGAGCAUCUUCGGAUGCUGAGGCGGCAGCCUUCGGUGGCGCGAUAGCACCAACGUUCUCAACUAUGACACACAAAAAGCGUGCUCCGUUGAAUGGAGUUUACCAUG [C8A A17G C27G A64U G94A G117A C123A U148C]
GGAUCUUAUCGAUCUAACCAAAAAGACAAAUUUGCCACAAAGCUUGAGAGCAUCUUCGCAUGCAGGGGCGUCAGCCUUCGGUGGCCCGAUAUCGCCAACGUUCUCAACUAUGACACGCAAAACGCGUGCUCCGUUGAAUGGAGUUUAUCAUG [C8A A19C C32U G59C A66G G71U G86C G92U]
GGAUCUUAUCGAUCUAACUAAAUAGACAAAUCUGCCACAAAGCUUGAGAGCAUCUGCGGAAGCAGAGGCGGCAGCCUUCGGUGGCUCCAUAGCGCCAUCGUUCUCAACUAUGACACGCAAAACGAGUGCUCCGUUGAAUGGAGUUUAUCAUG [C8A A19U A23U U56G U61A G86U G88C A98U C125A]
GGAUCUUAUCGAUCUAACAAAUAAGACAAAUCUGCCACAAAGCUUGAGAGCAUCUUCCGAUGCAGAGGCAGCAGCCUUCGGUGGCUCGACAGCGCCAUCGUUCUCAUCUAUGACACGCAAAACGUGUGCUCCGUUGAAUGGAGUUUAUCAUG [C8A A22U G58C G70A G86U U90C A98U A107U C125U]
GGAUCUUAUCGAUCUAACAAAAAGGACAAAUCUGCCACAAAGCUUGAGAGCAUCUUCGGAUGUAGAGGCGGCAGCCUUCGGUGACGCGAGAGCGCCAACGUUCUCAACUAUGACACGCAAAACGCGUGCUCCGUUGAAUGUAGUUUAUCAUG [C8A A24G C63U G84A U90G G141U]
GGAUCUUAUCGAUCUAACAAAAAUGACAAAUCUGCCACAACGCUGGAGAGCAUCAUCGGAUGCAGAGGCGGCAGGCUUCGGUUGCGCGAUAGCGCCAACGUUCUCAACUAUGACACGCAAAACGCGUGCUCCGUUGAAUGGAGUUUAUCAUG [C8A A24U A41C U45G U55A C75G G83U]
GGAUCUUAUCGAUCUAACAAAAAAGUCACAUCUGCCACAAAGCUUGAGAGCAUCUACGGAUGCAGAGGCGGCAGCCUUCGGUGUCGCGAUAGCGCCAACGGUCUCAACUAUGACACACAAAACGCGUGCUCCGUUGAAUGGAGUUUAUCAUG [C8A A26U A29C U56A G84U U101G G117A]
GGAUCUUAUCGAUCUAACAAAAAAGUCAAAUCUGCCACAAAGCAUGAGCGCAUCUUCGGAUGCAGAGGCGGCAUCCUUCGGUGGGGCGAUAGCGCCAACGUUCUCAAAUAAGACACGCAAAACGCGUGCUCCGUUGAAUGGAGUUUAUCAUG [C8A A26U U44A A49C G74U C85G C108A U111A]
GGAUCUUAUCGAUCUAACAAAAAAGUCAAAUCUGCCACAAAGCUUGAGAGCAUCAUCGGAUGCAGAGGCGGCAGCCUUCGGUAGCGGGAUAGCGCCAGCGUUCUCAACUAUGACACGCAAAACGCGUGCUCCGUUGAAUGGCGUUUAUAAUG [C8A A26U U55A G83A C87G A98G A142C C149A]
GGAUCUUAUCGAUCUAACAAAAAAGACAAAUCUGCCCCAAAGCCUGAGAGCAUCUUCGGAUGCAGAGGCGCCAGCCUUCGGUGGCUCGAUAGCGCCAACGUUCUCAACUAUGACACGCAAAACGCGUGCUCCGUUGAAUUGAGUUUAUCAUG [C8A A37C U44C G71C G86U G140U]
GGAUCUUAUCGAUCUAACAAAAAAGACAAAUCUGCCUCAAAGCUUGAGAGCAUCUUCGGAUGCAGAGGCGGCAGCCUUCGGUGGCGCGAUAGCGCCAACGUUCUCAACUAUGACACGCAAAACGCGUGCUCCGUUGAAUGGAGUUUAUCAUG [C8A A37U]
GGAUCUUAUCGAUCUAACAAAAAAGACAAAUCUGCCACACAGCUUGAGAGCCUAUUCGGAUGCAGAGGCGGCAGCAUUCGGUGGCGCGAUAGCGCCAACGUUCUCAACUAUGACAUGCAAAACGCGUGCUCCGUUGAAUGGAGUUUAUCAUG [C8A A40C A52C C54A C76A C116U]
GGAUCUUAUCGAUCUAACAAAAAAGACAAAUCUGCCACAAUGCUUGAGAGCAUCUUCGGAUGCAGAAGCGGCAGCCUUCGGUGGCGCGAUAGCGCCAACGUUCUCAACUAUGACACGCAAAACGCGUGCUCCGUUGAAUGUAGUUUAUCAUG [C8A A41U G67A G141U]
GGAUCUUAUCGAUCUAACAAAAAAGACAAAUCUGCCACAAAGCUUGGGCGCAUCUUCGCUUGCAGAGUCGGCAGCCUUCGGUGGCGUGAUAGCGCCAACGUUCUCAACUAUGACACGCAAAACGCGUGCUCCGUUGAAUGGAGUUUAUCAUG [C8A A47G A49C G59C A60U G68U C87U]
